The list shows a part of the results. At the low end of the ranking, values are background and their order means little. The protein was read in a cell extract, so binding may be indirect.

Data on 66 sequences can be found in article PMC10726135.

The experiment deals with T1, HNF4alpha8 (COS-7 nuclear extract) (UniProt P41235-5).
T1 sequence: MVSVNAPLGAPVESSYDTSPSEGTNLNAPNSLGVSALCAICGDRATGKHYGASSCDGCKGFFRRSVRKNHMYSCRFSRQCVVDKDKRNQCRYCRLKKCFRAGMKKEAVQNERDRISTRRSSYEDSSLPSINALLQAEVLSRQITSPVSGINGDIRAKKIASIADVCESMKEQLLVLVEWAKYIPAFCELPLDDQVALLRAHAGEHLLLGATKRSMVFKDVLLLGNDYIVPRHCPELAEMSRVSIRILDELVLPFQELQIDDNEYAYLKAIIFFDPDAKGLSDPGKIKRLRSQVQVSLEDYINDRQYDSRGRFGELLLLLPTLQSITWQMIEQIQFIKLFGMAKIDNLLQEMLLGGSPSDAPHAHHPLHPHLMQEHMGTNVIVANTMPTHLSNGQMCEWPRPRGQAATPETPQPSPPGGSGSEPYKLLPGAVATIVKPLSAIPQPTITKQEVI
In words: protein-binding microarray. Conditions: COS-7 nuclear extract on double-stranded Agilent 4x180k PBM; binding buffer, salt, pH and temperature not given; high values mean tight binding; double strand, one strand shown; sequences stand for … in …GCCTAGGGAGATTAGAGTATCGGTCGA
As for TCATTGCCTCTGGGCTTTGATGGACATTGC, the binding signal (log2 normalized intensity) came out at 3.92.
The value for CTCAATCTTTGCCCTCTTGGTATCAGCTTT was 2.54; that for CAAGGGGGTGGTGAAATGGGGGAAGGGCTG was -1.4.
Under TAAGCCACAGACAAATATTTGCTGTTACTC stands -1.26; under AGTCTGTGGAGACACTGCCAGTGTCTCAGG, 0.203.
As for CCAGGGACTTTGAACACTTCTTTGTTACTT, the binding signal (log2 normalized intensity) worked out at 2.75.
The value for ATCTGAGTGTCAAAAACAATACCAGGAGCT was -1.38; that for GTTCTAGCCCTGGTGAGTCAGTTCCCCTGC was 1.42.
The value for GCCACGGGAAAACCTGACTGCGCTCCCAGA was -1.42; that for CACAAATTGGAGAGCATCTTGGACTTGGGA was 3.16.
As to CCCAACCAAAAACAAAACTGGTCATACAGC, the binding signal (log2 normalized intensity) is -1.32.
Under CAAGATAAGATACGAAGGGTTTAAAGGGCA stands 3.36.
Under GGGGATTCTTTCTAAAGTGACTTAGCAGGA stands 0.173; under ACTTTTGCAATGTTTCCAAACCCCTCGGGA, 1.59.
The value for AGTCAGGTACCTGCTTCTGCCCCAGTTAAC was 3.08; that for AAGCATTTGGAGATTGCCACCTTGGTGAGA was 0.128; that for TGTTTAACAGAGATTTGCAGCTCAAAGTGC was 2.22.
Turning to CCCAAGTAATAGCCGTTTCTGTCCAGAGTT, the binding signal (log2 normalized intensity) is 0.357.
Under AGATGCTTTGAAGTGTAAAAGGATCATGGA stands 1.06; under AATGATGTTTACATTCCAGAAAAGGCCTAA, -0.123.
The value for GCGCGTGTTCCCGTCCGTGCGGTCGGGCGC was -0.252; that for GTACAAAGCCCCATATTCATAGACTCTGCA was 0.876.
The value for GTGTGAAGTAATCCCCAGTATAAACAACAC was 1.77.
With CAGTTTGTTCTTGGGGCCCACAGAGTCCAG, the binding signal (log2 normalized intensity) was found to be 2.79.
The value for AAACACCCACCTTGTTATCTTGTCTCTTCT was 0.98; that for TTTCTGTCTAGGTGCCAGAATTGCTGCTCC was -0.986.
The value for ACCGATTGTGTTTTAGGCAAACATTTGCGC was 0.525; that for GGGCTGCGGAGGCGACTGCAGATTGACCTG was 3.98.
In the case of CAAAAGAGAAAACTCCCTCAGAGATGTTTA, the binding signal (log2 normalized intensity) is -1.33.
Under GCTGAATTCCCATCTAAGACTTTATTTGAA stands -1.39; under GCATCTGTTTTTATTTCCCCTTTCTGTTGG, 2.17; under AAACTCTGAAGGCAAATTCTTAGAATTGCA, -0.745.
On to CTAAATGGTAGGATTGTTTGGGGATTACAC, for which the binding signal (log2 normalized intensity) is -0.0975.
The value for ACTGATGCTCATAGCTACGGGTGACCTTGA was 4.03.
The value for GCAAAACCTGATGTTTGGACAGTGTGACTC was 1.54; that for TTTATTAGGGGTCAGCAAAGAACTCCCCAG was 2.41.
The value for CCCAGGCCGTTGGACCAAGCTCTAGCATCC was -1.35; that for GGGTTTGACCGTTCTCTCCGGGTAAAGGTG was 1.97.
As for GAGGTGTCAGCCACCCCTCCTCCTGGGGGC, the binding signal (log2 normalized intensity) worked out at 2.93.
Under CCTCCCCGCCACCCCCCAGAGGGCCATCTA stands 5.88.
Consider TCAGGCTGAGGTGCTCTCAGATAAGAGATG, for which the binding signal (log2 normalized intensity) was -1.24.
Under CAGTGTTTACCGGATGAAAAGTGTTTGCCA stands 1.03; under CACAAAGTACAGCTTTTTGTTTGTGTAAGT, 1.67; under GGGAGGCCGCTGACAAGCAGCCTCAGTGGC, -1.26.
The value for GGGGCCCACTGAGACGGGCTGAGGATGAGG was -1.01; that for CATCTGGGGAAAGTGCAAGGGCCCAGAGGA was -1.28; that for GAGGACTTTGGCCTTTTGTGAGATATGGAC was 4.16.
The value for GTGAAACACAGGACTTGATCCAGGGCAAAG was -1.39; that for GCTGGAATCTTGATAATGCCCTGACCCTAG was 3.51; that for CGTGAAAGTTAACTTTGTAACTAACAACTG was 0.51.
For the sequence GCGCCCCCGTGTGGCCGCGAGCACCGCGCG, the binding signal (log2 normalized intensity) amounted to 2.79.
Under TGCTCCTGCACTTTTGTGCTCTGTACCCGG stands 2.93; under GCCTTAAGAGTCAAAGGGCAAAGGAATAAA, 2.23; under GTGGGAAAATTCCCCAGGAGGAGATAAGAT, -1.22.
The value for CCTTCGTTTGCTTTTCCTTATCATCACATG was 1.62; that for TTTGCCCTCTCTTCAGCACCTTTTAAAATA was -0.0592.
The value for GCAATCACAAGGAATGCCCTTATCTCCCAG was 0.329.
Turning to CAATCTTGTTGGGTCAGTTTATCGAAAATC, the binding signal (log2 normalized intensity) stood at 0.992.
The value for GCCTCCACTCCTCCTCCTTCCCTCCTGCTC was 1; that for AAAAAGTCCCTGGTCCCATAGGAAAGTGAG was -0.813.
The value for CATCAAAGCCAGGACTTCTAGAGTGAGCCA was -1.38.
Under GAAGAGGACTTTTTTTTGCCTAACTGCTGC stands -1.35; under GTGAAGGACACAGAATGACTTTCAGAAAGT, -0.0152.
Regarding GGGGCTGGGCCCCACAGTGCATCTGATAAG, the binding signal (log2 normalized intensity) is -1.21.
For GTTTCTCCACAGCCTCACCAACAGGATTGT, the binding signal (log2 normalized intensity) was -1.25.
The value for AAAAACACCTGGTTCCTTGCAAGATAAGGG was -0.239.
